Experimental data reported in the supplement of paper PMC12632987.
In all, about 1,800 sequences were measured (“median log2 fold change of GCK-ALFA target abundance (FLAG IP / Myc IP barcode read proportion)”: median about 0.14, lowest 2% from about -0.84 on). The list shows a part of the results.

T1: TRAF2, Q12933
T1 chain: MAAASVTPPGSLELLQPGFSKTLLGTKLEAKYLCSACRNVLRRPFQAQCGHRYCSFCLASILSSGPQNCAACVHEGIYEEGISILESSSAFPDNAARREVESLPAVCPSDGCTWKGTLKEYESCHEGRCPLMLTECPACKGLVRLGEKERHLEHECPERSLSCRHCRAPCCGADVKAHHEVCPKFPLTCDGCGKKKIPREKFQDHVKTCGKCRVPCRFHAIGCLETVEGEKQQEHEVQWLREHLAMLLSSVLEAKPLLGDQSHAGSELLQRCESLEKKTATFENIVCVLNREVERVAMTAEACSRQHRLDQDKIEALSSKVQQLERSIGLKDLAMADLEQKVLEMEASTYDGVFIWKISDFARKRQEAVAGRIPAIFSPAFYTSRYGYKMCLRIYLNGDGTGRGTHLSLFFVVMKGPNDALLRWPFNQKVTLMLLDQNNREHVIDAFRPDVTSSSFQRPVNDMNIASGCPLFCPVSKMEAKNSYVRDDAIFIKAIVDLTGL

B1: traf2_out_15_48_1358 (protein)
chain: STEALRETARKVADLIDATLDEVAKELKALLPKAKPEVKPILEEAIRVASTHRSINDTIALLEEAIKKSDPELAKELQELRDRLLATQKEASKLINETEK
B2: traf2_out_20_3_2159 (protein)
chain: SELEKKAEEALEKAVKLLDEAAELADPETAARLKELRERVIASKELSPEDRLVVLSEVRREVRALAEEARAAGREELAAVLEEAADALNKAMQLVYKIIE
B3: traf2_out_14_149_1231 (protein)
chain: SEEAKLLAAAAELTEKIAKTLEEVLKLLKEGKLEEAKKLLKESIEELEKESKKKGVTPSQLFQLEDLLELLEKDPEAAKKFAEEALARAKENADTLKEMA
B4: traf2_out_18_147_1815 (protein)
chain: DLNEALNELADAKDEYVQTVRDAFTALGAEAEAEKYSALARGTGSDPELLTALRDEVVAKVKALDPSKAPEVKAKLDELTAKILEYRKKINELLKKEEEE
B5: traf2_out_13_95_1211 (protein)
chain: EKEKTEKLREKMNEIADELIDFIEEKAEEIKEETGDEEYKEEILSTLRRYGVRAAVALIREYAEKDPEYAEVYRKAAEEAEKKIREAGRKAAEAIKEIEE
B6: traf2_out_5_63_2342 (protein)
chain: SEREELTELAREADRLVREMLEAAERGDEEEVERLLEEAVEDPELARLVIGILKAEARAYELSGREKELAEIAKELRERLERLLEERERREREEREAAER
B7: traf2_out_17_162_1612 (protein)
chain: SSLEATLKELLKKKEELEKKLKELEEKLKNISKLSKEELSDLLVEASEARREALEALEKLRSLKDKLDPELYKELSEKFEEIAEKFQKLANKFYKELEKK
B8: traf2_out_13_95_1200 (protein)
chain: EEEKTKKIREVTNKIADELLDFADKTAEEVEKETGREDHKERILKALNGNGINAAIQVLRELAKEDPEYAEIYLKAAEELEAKREEAGKEVAKELKKIEE
B9: traf2_out_16_62_1468 (protein)
chain: EEEKKKLLKEADEYIDANQELRDTVITFRSGGDKEAALKKLAELAEKYGELMKELLDALKQALADPENQAEYLAKADELATEVRTKLVKKALELEEKAKK
B10: traf2_out_20_3_2097 (protein)
chain: EELEKELEKALEEALKLIKEAIKIADKETAKKLEKLAKELKKARELPLEDRLVKLSEVRRKLLELAEEAKKKGKEELAKILEEAAEEINRAMNLAYKIIE
B11: traf2_out_20_3_2227 (protein)
chain: EELEKEAEKKLEEAEKQLKEIIKVADEEDKKVVEKMLKELKEAKKLDPVDRLVVVSKVRRTLLELAQRARARGNEELAKKLEEAAELLQKLMQLLYKIIE
B12: traf2_out_5_189_2330 (protein)
chain: SPKELEEERDRERARRLTKEANALLAEAQEKGLSPEEFIDRALARLAELSLEDARLFRGIMYAIALNTAWANNDEELEAAAREFRERAAALIAAREAAAA
B13: traf2_out_6_166_2467 (protein)
chain: EEEKLKRIREIIEELGKYPAEIVIEAFEILAEKRDDRRATLARQLASGVRQGQKAGLDVKTILSAFADGMLALGVPVEEILELFEEVLKIAEELEKKRKE
B14: traf2_out_17_178_1728 (protein)
chain: SKEEILKKISEVADKRLDVNKKAMDELRAIAEAEGVLTPELAARLDAVSKTSNLYALQEVAEEVIARSSSAAEVQALLDKTTKELKKLNKEIQELVEKLE
B15: traf2_out_13_95_1180 (protein)
chain: SAETKEKINEIADEMIEEVEKILAEAAEKVADDPEVKAALEEIRETARTKGVSTAIHQLEELAAANPEHKELLTEALEKIKEVRREAGKKVAEIIKEEKE
B16: traf2_out_11_155_688 (protein)
chain: EKERELNNELVDKVTEIEERLKEKVLEILREAAAAHPEHREEVEALVEEHRGWSGSSLARAAAQLFRELGLEEEAKRVEELLEKAQEEKNKVLKEIEAKL
B17: traf2_out_17_178_1735 (protein)
chain: SKEEILKEISKLADELLDTTKTAMDKIKAILKEEGVLTPELEARLDAVAKNGNLYAFEEVADEAIALSSRKEELTALKNETTAKMKELNKKIQEAVQKLE
B18: traf2_out_20_3_2087 (protein)
chain: SELEKELEEELKKAEELLKKAQAAADPKTAEKLKKLIERLKESRELDPTDRLVEISEIRRELLLLQQEAKAAGKAELAALLEKAIEELGRAMNLLMKIIE
B19: traf2_out_17_162_1479 (protein)
chain: MSIEEKVERLERELEELEEEARRLREELERLEEKSKEEITDLLVEVSEARRRALELAEEFEELAPEIGEEKARELADRAREIAEELQRIANEIYKELEKK

Target: T1, TRAF2, Q12933
Assay: median log2 fold change of GCK-ALFA target abundance (FLAG IP / Myc IP barcode read proportion) (log2 ratio); each designed protein is fused to an ALFA-tag nanobody in HEK293 cells to bring the named protein to FLAG-tagged glucokinase (GCK); Myc marks an untargeted standard; higher = target protein stabilised (more abundant)
Conditions: target protein: 3xFLAG-MCP-GCK-ALFA reporter; HEK293 landing pad (RPLP)
How it was run: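 The readout is target abundance, the per-binder median log2 ratio of FLAG to Myc barcode read proportions. It came from HEK293 landing-pad cells carrying a recombined ALFA-nanobody-fused binder library, induced with 2 μg mL^−1 doxycycline and transfected with a plasmid for a FLAG-tagged target and a Myc-tagged standard. After 48 h, lysates were immunoprecipitated with anti-FLAG and anti-Myc, and circular RNA barcodes were reverse transcribed, amplified and sequenced. Each barcode needed a proportion of at least 10^−7 in both replicates and each binder at least 3 barcodes per replicate, a pseudocount of 10^−6 was added, and the replicates were pooled.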

Binder | median log2 fold change
B1 | 0.33
B2 | 0.32
B3 | 0.24
B4 | 0.234
B5 | -0.746
B6 | 0.114
B7 | 0.155
B8 | 0.311
B9 | 0.58
B10 | 0.141
B11 | 0.226
B12 | 0.0828
B13 | -0.123
B14 | 0.22
B15 | -0.534
B16 | 0.217
B17 | 0.157
B18 | 0.116
B19 | 0.0731
